Our source for the binding signal values is publication PMC9911399, “Two distinct binding modes provide the RNA-binding protein RbFox with extraordinary sequence specificity”.

Numbering of substitutions follows the chain as printed; changes in the protein carry UniProt numbers. The list shows a part of the results.

Sequences and labels used below:
T1: RBFOX1 RRM (Homo sapiens, UniProt Q9NWB1 109-208)
T1 sequence: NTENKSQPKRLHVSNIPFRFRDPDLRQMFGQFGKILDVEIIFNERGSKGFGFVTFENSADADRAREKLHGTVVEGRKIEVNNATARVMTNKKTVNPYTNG

B1: CGCGAAC (DNA:RNA)
RNA: GGGAGACCGGAAUUCAGAUUGUCCCGCGAACUUAAAUCCCGUCGUAGCCACCA
DNA 1: CAATCTGAATTCCGGTCTCCC
DNA 2: TGGTGGCTACGACGGGATT
B2: ACUACUG (DNA:RNA)
RNA: GGGAGACCGGAAUUCAGAUUGUCCACUACUGUUAAAUCCCGUCGUAGCCACCA
DNA 1: CAATCTGAATTCCGGTCTCCC
DNA 2: TGGTGGCTACGACGGGATT
B3: CUCCGUC (DNA:RNA)
RNA: B1 RNA with G26U, G28C, A29G, A30U
DNA 1: CAATCTGAATTCCGGTCTCCC
DNA 2: TGGTGGCTACGACGGGATT
B4: AGGGCCA (DNA:RNA)
RNA: B2 RNA with C26G, U27G, A28G, U30C, G31A
DNA 1: CAATCTGAATTCCGGTCTCCC
DNA 2: TGGTGGCTACGACGGGATT
B5: GAUCCGG (DNA:RNA)
RNA: B2 RNA with A25G, C26A, A28C, U30G
DNA 1: CAATCTGAATTCCGGTCTCCC
DNA 2: TGGTGGCTACGACGGGATT
B6: GAAUCGA (DNA:RNA)
RNA: B2 RNA with A25G, C26A, U27A, A28U, U30G, G31A
DNA 1: CAATCTGAATTCCGGTCTCCC
DNA 2: TGGTGGCTACGACGGGATT
B7: AGAAAAG (DNA:RNA)
RNA: B2 RNA with C26G, U27A, C29A, U30A
DNA 1: CAATCTGAATTCCGGTCTCCC
DNA 2: TGGTGGCTACGACGGGATT
B8: AAUAUAG (DNA:RNA)
RNA: B2 RNA with C26A, C29U, U30A
DNA 1: CAATCTGAATTCCGGTCTCCC
DNA 2: TGGTGGCTACGACGGGATT
B9: AUGACUA (DNA:RNA)
RNA: B2 RNA with C26U, U27G, G31A
DNA 1: CAATCTGAATTCCGGTCTCCC
DNA 2: TGGTGGCTACGACGGGATT

The assay has as its target T1, RBFOX1 RRM. The assay is described as follows: EMSA; HiTS-Eq, 1 nM pool, 10 min; buffer printed only for the single-RNA assays: 10 mM Tris pH 7.5, 150 mM NaCl, 3.4 mM EDTA, 0.001% NP-40, 30 C. Conditions: tags: His6 N-terminal (pET28a); label: 5' 32P. The method in brief:
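Purified RbFox RRM (wild type or mutant) was equilibrated for 10 min in 50 µL with 1 nM of a 5′-radiolabelled pool of RNA with 7 randomized nucleotides, its flanks annealed to DNA oligonucleotides, across increasing protein concentrations. Free RNA was separated by 8% native PAGE, excised, reverse-transcribed, PCR-barcoded and sequenced on an Illumina HiSeq 2500. Relative association constants came from read-count changes of each variant against the control reaction, normalised to the cognate motif.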
In general terms: A gel shift assay detects complexes by their altered migration in electrophoresis.
For the molecule B1, the binding signal was 0.0117 KA relative to UGCAUGU. Consider B2, for which the binding signal is 0.00616 KA relative to UGCAUGU. For B3, the binding signal is 0.00995 KA relative to UGCAUGU.

As for B4, the binding signal is 0.018 KA relative to UGCAUGU. In the case of B5, the binding signal was 0.00499 KA relative to UGCAUGU. Consider B6, for which the binding signal is 0.0155 KA relative to UGCAUGU.

B7: the binding signal is 0.00363 KA relative to UGCAUGU. In the case of B8 it was 0.00237 KA relative to UGCAUGU. On to B9, for which the binding signal was 0.00301 KA relative to UGCAUGU.
